{"source": "paper PMC12040169", "about": "(PLOS Biology, 2025)", "note": "Some of the results follow."}
{"test_system": "T1, C. trachomatis L2/434/Bu expressing GFP (CTL2-GFP)", "T1 construct": "L2/434/Bu GFP intracellular growth in HeLa cells", "set-up": "species or system HeLa; C. trachomatis total inclusion area by high-content imaging, normalised to DMSO", "conditions": "total inclusion area; 28.5 h, 10 µM; inhibitor", "method_in_brief": "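Following bulk GFP and resorufin fluorescence reads, infected cells were fixed, Hoechst-stained and imaged on a high-content platform. Inclusion total area and number per well served as growth proxies; nuclei counts indicated host viability. MICs were derived as for the fluorescence assay.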"}
{"smiles": "CN1CCOc2ccccc2C(=O)NC/C=C/CC2(CCCN(Cc3cc[nH]n3)C2)C1=O", "note": "(centres unmarked) [CBK292175]", "% of control remaining": 99.4198}
{"smiles": "COc1ccccc1NS(=O)(=O)c1ccc(N2CCN3CCCC3C2)c(N)c1", "note": "(centres unmarked) [CBK001266]", "% of control remaining": 87.9884}
{"smiles": "Cc1ccc(NC(=O)c2ccc3nccnc3c2)c(C)n1", "note": "[CBK200219]", "% of control remaining": 83.7012}
{"smiles": "CN(C)c1ccc(/C=N/NC(=O)CCn2c3ccccc3c3cc(I)ccc32)cc1", "note": "[CBK262902]", "% of control remaining": 111.05}
{"smiles": "CC(NS(=O)(=O)c1ccc(F)cc1)C(=O)Nc1ccc(C(N)=O)cc1", "note": "(centres unmarked) [CBK267658]", "% of control remaining": 69.5971}
{"smiles": "CC1(C)CC(N(Cc2ccncc2)Cc2ccoc2)CC(C)(C)N1", "note": "[CBK283269]", "% of control remaining": 83.4958}
{"smiles": "Cc1cc(COC(=O)NCc2ccncc2)cc(C)n1", "note": "[CBK200136]", "% of control remaining": 89.8148}
{"smiles": "CCOC(=O)C(CNC(=O)CNC(=O)c1ccoc1)Cc1ccccc1", "note": "(centres unmarked) [CBK305971]", "% of control remaining": 37.4443}
{"smiles": "CCCCC1=NN2C(=N)/C(=C/c3cn(Cc4ccc([N+](=O)[O-])cc4)c4ccccc34)C(=O)N=C2S1", "note": "[CBK264320]", "% of control remaining": 114.966}
{"smiles": "Cc1cc(CC(=O)N2CCN(CCNC(=O)C3CCCC3)CC2)no1", "note": "[CBK306376]", "% of control remaining": 84.9755}
{"smiles": "Cc1ccc(S(=O)(=O)NCC2CCC(C(=O)Oc3ccc4ccc(=O)oc4c3)CC2)cc1", "note": "(centres unmarked) [CBK093519]", "% of control remaining": 100.51}
{"smiles": "CCC(=O)N1CCCc2cc(C(O)CN3CCC(C)CC3)ccc21", "note": "(centres unmarked) [CBK282144]", "% of control remaining": 101.873}
{"smiles": "Nc1cc2c(ncn2[C@@H]2C[C@@H](O)[C@@H](CO)O2)c(=O)[nH]1", "note": "[CBK201196]", "% of control remaining": 113.274}
{"smiles": "CN1CCN(C(=O)CC[C@@H]2CNC(=O)[C@@H]3C[C@H](NC(=O)c4ccccc4)CN23)CC1", "note": "[CBK289014]", "% of control remaining": 110.669}
{"smiles": "O=C(Cc1c[nH]c2ccccc12)N1CCC(F)CC1", "note": "[CBK200274]", "% of control remaining": 76.3066}
{"smiles": "N#Cc1cc(F)cc(F)c1NC(=O)c1cccs1", "note": "[CBK066832]", "% of control remaining": 97.5161}
{"smiles": "CNC(=O)c1ccc(CN(Cc2noc(C(C)C)n2)C2CC2)cc1", "note": "[CBK304084]", "% of control remaining": 92.6582}
{"smiles": "O=C(N[C@H]1CCN2C(=O)c3cc(-c4ccccc4)ccc3NC(=O)[C@H]12)c1cccs1", "note": "[CBK289350]", "% of control remaining": 113.992}
{"smiles": "O=C(Nc1ccc(Br)cc1)c1c(O)n2c3c(cccc3c1=O)CCC2", "note": "[CBK291207]", "% of control remaining": 95.3931}
{"smiles": "CCOC(=O)c1csc(C2CCCN2C(=O)c2ccsc2)n1", "note": "(centres unmarked) [CBK304125]", "% of control remaining": 59.8078}
{"smiles": "Cc1cc(C)n2nc(C(=O)N/N=C/c3ccc(O)cc3)nc2n1", "note": "[CBK261765]", "% of control remaining": 101.396}
{"smiles": "COc1ccc(S(=O)(=O)NC[C@H]2C[C@@H]3CC[N@]2C[C@@H]3CN2CCOCC2)cc1", "note": "[CBK288761]", "% of control remaining": 91.8616}
{"smiles": "CN(C)c1cccc(C2CCCN2c2nc3c(cnn3C)c(=O)[nH]2)c1", "note": "(centres unmarked) [CBK305220]", "% of control remaining": 51.0674}
{"smiles": "CC(C(=O)Nc1ccc(F)c(F)c1)n1cc([N+](=O)[O-])cn1", "note": "(centres unmarked) [CBK268771]", "% of control remaining": 80.9868}
{"smiles": "O=C(O)CCn1oc(=O)c2ccccc21", "note": "[CBK020340]", "% of control remaining": 3.94}
{"smiles": "c1cncc(-c2nccnc2NCC2CC2)c1", "note": "[CBK037310]", "% of control remaining": 84.4869}
{"smiles": "CCCc1ccc(S(=O)(=O)Nc2cccc(C(=O)Nc3ccc(F)cc3)c2)cc1", "note": "[CBK038978]", "% of control remaining": 78.2216}
{"smiles": "Cc1nn(C)c(N2CCNCC2)c1NC(=O)c1cc(-c2ccccc2)oc1C", "note": "[CBK050356T]", "% of control remaining": 81.7112}
{"smiles": "CCOc1ccccc1-c1nnc(SCC(=O)NC2CCCCC2)o1", "note": "[CBK268728]", "% of control remaining": 63.8402}
{"smiles": "COc1ncc(-c2nccnc2OCCOc2ccccc2)c(OC)n1", "note": "[CBK106752]", "% of control remaining": 106.719}
{"smiles": "Cc1cn(CC(=O)N2CCC(Cn3cncn3)(C3CCCCC3)CC2)c(=O)[nH]c1=O", "note": "[CBK136800]", "% of control remaining": 91.5814}
{"smiles": "O=C(O)c1cccc(NC(=O)c2cccc(S(=O)(=O)Nc3ccc(Cl)cc3)c2)c1", "note": "[CBK261261]", "% of control remaining": 95.7875}
{"smiles": "CN1CCN(NC(=O)c2cc(C(=O)c3ccc(Cl)cc3Cl)c[nH]2)CC1", "note": "[CBK107420]", "% of control remaining": 89.987}
{"smiles": "CN/C(=N\\C1CCCCC1)N1CCOCC1", "note": "[CBK023800G]", "% of control remaining": 88.6359}
{"smiles": "COc1ccc(-c2csc(/C(C#N)=C/Nc3ccc(S(=O)(=O)Nc4nccs4)cc3)n2)cc1", "note": "[CBK262374]", "% of control remaining": 24.0134}
{"smiles": "Cc1onc(-c2ccccc2)c1C(=O)N1CCC1", "note": "[CBK160450]", "% of control remaining": 74.9605}
{"smiles": "CCOc1ccc(CCC(=O)N2CCCc3c(cnn3C)C2)cc1", "note": "[CBK285276]", "% of control remaining": 100.17}
{"smiles": "COc1cc(Nc2cc(-c3cccc(N)c3)ncn2)cc(OC)c1OC", "note": "[CBK037713]", "% of control remaining": 103.388}
{"smiles": "COc1ccc(CCN2CCC(Oc3nccnc3OCc3cccnc3)CC2)cc1OC", "note": "[CBK083179T]", "% of control remaining": 69.6851}
{"smiles": "Cc1cc(Cl)ccc1CNS(=O)(=O)c1cccs1", "note": "[CBK044714]", "% of control remaining": 81.7091}
{"smiles": "O=C(Nc1ccc([C@@H](O)[C@H]2COCC(=O)N2Cc2cccnc2)cc1)c1ccccc1", "note": "[CBK289319]", "% of control remaining": 119.197}
{"smiles": "Cc1ccnc(NS(=O)(=O)c2ccc(NS(=O)(=O)c3ccc(F)cc3)cc2)n1", "note": "[CBK051024]", "% of control remaining": 107.798}
{"smiles": "O=C(O)c1ccccc1-c1nc(-c2ccccc2F)no1", "note": "[CBK268022]", "% of control remaining": 100.704}
{"smiles": "Cc1ccnn1CCC(=O)N1CCCC1c1nc2ccccc2[nH]1", "note": "(centres unmarked) [CBK285178]", "% of control remaining": 86.2462}
{"smiles": "O=C(C(Cc1ccccc1)c1ccccc1)N1CCC2(CCN(CCCCOc3ccccc3)C2)C1", "note": "(centres unmarked) [CBK160643]", "% of control remaining": 62.8052}
{"smiles": "N#C/C(=C\\c1ccc(N2CCN(c3ccc(F)cc3)CC2)c([N+](=O)[O-])c1)c1nn(-c2ccccc2)c(N)c1C#N", "note": "[CBK267927]", "% of control remaining": 96.4735}
{"smiles": "CC(C)c1ccccc1OCC(=O)OCCN1C(=O)c2ccccc2C1=O", "note": "[CBK264841]", "% of control remaining": 111.386}
{"smiles": "CCN(C(C)=O)c1nc(CN2CCOC(c3ccc(F)cc3)C2)cs1", "note": "(centres unmarked) [CBK306213]", "% of control remaining": 66.3636}
{"smiles": "C=CCN1C(=O)CC2(C1=O)C(=O)N(Cc1nnc(-c3ccc(C)cc3)o1)c1ccc(Cl)cc12", "note": "(centres unmarked) [CBK075434]", "% of control remaining": 113.064}
{"smiles": "CCN(CC)C(=O)CN1CCCN(c2cc(Oc3ccc(OC)c(OC)c3)ncn2)CC1", "note": "[CBK083359T]", "% of control remaining": 104.634}
{"smiles": "CCOC(=O)c1[nH]c2ccccc2c1NC(C)=O", "note": "[CBK086755]", "% of control remaining": 95.9937}
{"smiles": "CCN(CC)CCNC(=O)/C(=N\\O)c1ccccc1", "note": "[CBK288408]", "% of control remaining": 72.8679}
{"smiles": "O=C(CO)N1CC2(CCN(CCc3cccc4ccccc34)CC2)c2ccccc21", "note": "[CBK137003]", "% of control remaining": 80.0279}
{"smiles": "CNS(=O)(=O)c1c(C)nn(-c2ccccc2)c1C", "note": "[CBK086715]", "% of control remaining": 70.3246}
{"smiles": "CS(=O)(=O)Nc1ccc2c(ccn2Cc2ccccc2)c1", "note": "[CBK159527]", "% of control remaining": 80.9199}
{"smiles": "FC(F)(F)C1(NC2(C(Cl)(Cl)Cl)Oc3ccccc3O2)Oc2ccccc2O1", "note": "[CBK265544]", "% of control remaining": 87.5481}
{"smiles": "CC(C)(C)c1ccc(-c2cc(C3CCNCC3)n[nH]2)cc1", "note": "[CBK270240]", "% of control remaining": 81.4653}
{"smiles": "CN(C)CCN(C)c1cncc(-c2cccc(/C=C/C(=O)O)c2)n1", "note": "[CBK065451]", "% of control remaining": 109.774}
{"smiles": "Cc1ccc2c(CSc3nc(N)cc(N)n3)cc(=O)oc2c1C", "note": "[CBK297519]", "% of control remaining": 80.4065}
{"smiles": "Cc1cc(C)c2cc(C(=O)N(C)CC3(C)COC3)[nH]c2c1", "note": "[CBK281711]", "% of control remaining": 101.243}
{"smiles": "Cc1ccc(-c2nnc(CNC(=O)c3ccc(F)c(F)c3)o2)s1", "note": "[CBK284647]", "% of control remaining": 120.651}
{"smiles": "CC(C)c1nsc(NS(=O)(=O)c2cccc(C(F)(F)F)c2)n1", "note": "[CBK038881]", "% of control remaining": 90.5977}
{"smiles": "O=[N+]([O-])c1cccc(S(=O)(=O)Nc2ccc(C(O)(C(F)(F)F)C(F)(F)F)cc2)c1", "note": "[CBK062093]", "% of control remaining": 85.721}
{"smiles": "Cc1cc(C)nc(Nc2ncc(O)n2-c2ccccc2)n1", "note": "[CBK287914]", "% of control remaining": 94.6171}
{"smiles": "Cc1cnc2[nH]c(C3CCN(C(=O)c4scnc4C)CC3)cc2c1", "note": "[CBK284753]", "% of control remaining": 107.946}
{"smiles": "CC(=O)c1ccc(CN2CCN(S(=O)(=O)c3ccc(C(F)(F)F)cc3Cl)CC2)cc1", "note": "[CBK063072]", "% of control remaining": 71.5416}
{"smiles": "CN(C)S(=O)(=O)N1CCN(c2ccc([N+](=O)[O-])c(NC3CC3)c2)CC1", "note": "[CBK265158]", "% of control remaining": 106.306}
{"smiles": "COc1cc(C(C)=O)ccc1OCCCCN1CCOCC1", "note": "[CBK269713C]", "% of control remaining": 95.0623}
{"smiles": "Cc1ccc2[nH]cc(CCN3CCC4(C3)OCCc3c4[nH]c4ccccc34)c2c1", "note": "(centres unmarked) [CBK061790]", "% of control remaining": 60.7036}
{"smiles": "COc1cc2c(cc1NC(=O)CSc1nc3ccccc3o1)oc1ccccc12", "note": "[CBK265154]", "% of control remaining": 119.242}
{"smiles": "Cc1ccc(NC(=O)c2cc([N+](=O)[O-])ccc2NCCN2C(=O)c3ccccc3C2=O)cc1", "note": "[CBK267159]", "% of control remaining": 111.985}
{"smiles": "COc1ccccc1CC(=O)N1CC[C@@H]2NC(=O)[C@H]3C[C@H](NC(=O)C4CC4)CN3C(=O)[C@H]21", "note": "[CBK289267]", "% of control remaining": 97.6729}
{"smiles": "COc1ccccc1C(=O)Cn1c(=O)n(S(=O)(=O)c2ccccc2)c2ccccc21", "note": "[CBK106497]", "% of control remaining": 113.126}
{"smiles": "O=C(c1cc2cc(F)ccc2[nH]1)N1CCN(c2ncccn2)CC1", "note": "[CBK107280]", "% of control remaining": 47.3296}
{"smiles": "N#Cc1cccc(C(=O)N2CCN(c3ncccn3)CC2)c1", "note": "[CBK144498]", "% of control remaining": 105.563}
{"smiles": "O=C(CC(C(=O)O)n1cncn1)c1ccc(Br)cc1", "note": "(centres unmarked) [CBK269305]", "% of control remaining": 88.1432}
{"smiles": "CC(C)NC(=O)Cn1nnc(-c2cccc(C(F)(F)F)c2)n1", "note": "[CBK304275]", "% of control remaining": 61.1815}
